PMC11186355
No constants are given. Whether binding was seen depends on the method and setting. For some of these results: In cells and extracts the contact can be indirect. Some binding calls cover weakened binding; strength is not graded here. For some of these results: Tags and fused reporters may be left off the sequences shown.

The chains behind the UniProt entries cited, without tags or fusion partners.
UniProt Q9H0U4: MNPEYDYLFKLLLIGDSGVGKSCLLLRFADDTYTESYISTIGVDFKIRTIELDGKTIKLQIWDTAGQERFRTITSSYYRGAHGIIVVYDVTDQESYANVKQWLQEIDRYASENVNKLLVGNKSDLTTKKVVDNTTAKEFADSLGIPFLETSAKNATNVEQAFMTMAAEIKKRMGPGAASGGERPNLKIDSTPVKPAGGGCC
UniProt Q15437: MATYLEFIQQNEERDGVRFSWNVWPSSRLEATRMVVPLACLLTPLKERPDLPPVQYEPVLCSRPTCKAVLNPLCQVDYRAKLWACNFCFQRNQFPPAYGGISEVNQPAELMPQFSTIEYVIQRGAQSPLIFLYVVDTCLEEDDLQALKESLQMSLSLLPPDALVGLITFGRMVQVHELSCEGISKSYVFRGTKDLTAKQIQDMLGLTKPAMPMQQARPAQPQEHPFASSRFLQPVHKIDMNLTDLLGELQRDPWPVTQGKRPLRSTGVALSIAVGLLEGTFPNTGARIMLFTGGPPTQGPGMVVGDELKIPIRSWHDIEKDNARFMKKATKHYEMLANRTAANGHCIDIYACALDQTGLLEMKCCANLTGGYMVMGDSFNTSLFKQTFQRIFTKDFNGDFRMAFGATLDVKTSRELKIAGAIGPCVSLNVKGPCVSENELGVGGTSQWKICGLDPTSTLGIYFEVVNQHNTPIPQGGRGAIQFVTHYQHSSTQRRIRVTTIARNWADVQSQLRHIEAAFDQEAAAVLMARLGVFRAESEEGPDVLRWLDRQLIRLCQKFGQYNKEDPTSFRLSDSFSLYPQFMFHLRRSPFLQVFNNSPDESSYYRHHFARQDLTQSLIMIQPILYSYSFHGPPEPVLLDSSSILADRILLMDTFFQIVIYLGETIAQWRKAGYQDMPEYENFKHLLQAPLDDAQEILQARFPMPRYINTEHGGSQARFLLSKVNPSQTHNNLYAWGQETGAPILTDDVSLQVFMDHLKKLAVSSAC
UniProt Q9Y2I6: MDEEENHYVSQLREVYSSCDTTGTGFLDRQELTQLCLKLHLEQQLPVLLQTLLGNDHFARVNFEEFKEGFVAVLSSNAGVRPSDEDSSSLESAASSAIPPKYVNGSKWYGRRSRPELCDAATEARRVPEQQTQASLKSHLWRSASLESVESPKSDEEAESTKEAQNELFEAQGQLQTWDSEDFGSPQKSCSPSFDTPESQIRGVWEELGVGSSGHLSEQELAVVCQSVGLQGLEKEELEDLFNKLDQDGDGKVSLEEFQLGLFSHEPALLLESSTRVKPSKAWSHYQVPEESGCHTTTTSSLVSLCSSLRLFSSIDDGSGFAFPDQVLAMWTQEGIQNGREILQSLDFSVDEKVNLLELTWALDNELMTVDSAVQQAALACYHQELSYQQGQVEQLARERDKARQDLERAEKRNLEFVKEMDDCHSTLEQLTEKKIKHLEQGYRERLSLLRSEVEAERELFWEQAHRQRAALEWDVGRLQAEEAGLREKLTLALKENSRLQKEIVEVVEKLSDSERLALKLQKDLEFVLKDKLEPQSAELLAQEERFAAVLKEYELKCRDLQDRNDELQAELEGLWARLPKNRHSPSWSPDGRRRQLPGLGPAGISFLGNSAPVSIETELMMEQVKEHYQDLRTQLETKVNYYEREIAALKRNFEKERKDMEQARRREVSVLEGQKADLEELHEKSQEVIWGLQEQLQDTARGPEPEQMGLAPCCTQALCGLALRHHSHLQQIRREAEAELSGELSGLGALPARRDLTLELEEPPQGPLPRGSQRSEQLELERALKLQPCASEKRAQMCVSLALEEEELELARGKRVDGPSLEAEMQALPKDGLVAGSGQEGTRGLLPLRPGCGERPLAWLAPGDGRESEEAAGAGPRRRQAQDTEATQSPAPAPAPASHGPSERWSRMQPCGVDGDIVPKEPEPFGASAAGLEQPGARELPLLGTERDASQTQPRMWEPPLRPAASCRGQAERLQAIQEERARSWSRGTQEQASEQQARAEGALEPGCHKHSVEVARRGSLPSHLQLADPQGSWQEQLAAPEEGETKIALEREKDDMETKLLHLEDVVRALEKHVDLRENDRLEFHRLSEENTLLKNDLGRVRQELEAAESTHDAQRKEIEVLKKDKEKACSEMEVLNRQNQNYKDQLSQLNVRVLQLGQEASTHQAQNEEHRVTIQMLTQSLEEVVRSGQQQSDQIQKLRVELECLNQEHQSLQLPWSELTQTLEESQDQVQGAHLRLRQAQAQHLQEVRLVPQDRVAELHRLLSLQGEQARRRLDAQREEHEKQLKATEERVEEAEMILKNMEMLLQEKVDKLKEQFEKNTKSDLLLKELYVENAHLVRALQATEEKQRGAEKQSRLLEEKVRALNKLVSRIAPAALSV
UniProt Q86WV6: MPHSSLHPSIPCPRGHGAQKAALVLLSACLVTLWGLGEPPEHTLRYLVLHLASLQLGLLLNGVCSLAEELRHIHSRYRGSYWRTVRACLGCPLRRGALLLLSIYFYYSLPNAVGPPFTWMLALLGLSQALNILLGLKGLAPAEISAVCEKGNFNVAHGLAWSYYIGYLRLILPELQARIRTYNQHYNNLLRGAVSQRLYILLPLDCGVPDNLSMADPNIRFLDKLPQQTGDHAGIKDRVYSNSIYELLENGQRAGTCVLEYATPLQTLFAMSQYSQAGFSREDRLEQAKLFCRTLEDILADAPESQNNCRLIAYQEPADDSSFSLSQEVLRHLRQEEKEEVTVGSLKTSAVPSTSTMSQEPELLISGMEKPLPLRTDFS
UniProt P35222: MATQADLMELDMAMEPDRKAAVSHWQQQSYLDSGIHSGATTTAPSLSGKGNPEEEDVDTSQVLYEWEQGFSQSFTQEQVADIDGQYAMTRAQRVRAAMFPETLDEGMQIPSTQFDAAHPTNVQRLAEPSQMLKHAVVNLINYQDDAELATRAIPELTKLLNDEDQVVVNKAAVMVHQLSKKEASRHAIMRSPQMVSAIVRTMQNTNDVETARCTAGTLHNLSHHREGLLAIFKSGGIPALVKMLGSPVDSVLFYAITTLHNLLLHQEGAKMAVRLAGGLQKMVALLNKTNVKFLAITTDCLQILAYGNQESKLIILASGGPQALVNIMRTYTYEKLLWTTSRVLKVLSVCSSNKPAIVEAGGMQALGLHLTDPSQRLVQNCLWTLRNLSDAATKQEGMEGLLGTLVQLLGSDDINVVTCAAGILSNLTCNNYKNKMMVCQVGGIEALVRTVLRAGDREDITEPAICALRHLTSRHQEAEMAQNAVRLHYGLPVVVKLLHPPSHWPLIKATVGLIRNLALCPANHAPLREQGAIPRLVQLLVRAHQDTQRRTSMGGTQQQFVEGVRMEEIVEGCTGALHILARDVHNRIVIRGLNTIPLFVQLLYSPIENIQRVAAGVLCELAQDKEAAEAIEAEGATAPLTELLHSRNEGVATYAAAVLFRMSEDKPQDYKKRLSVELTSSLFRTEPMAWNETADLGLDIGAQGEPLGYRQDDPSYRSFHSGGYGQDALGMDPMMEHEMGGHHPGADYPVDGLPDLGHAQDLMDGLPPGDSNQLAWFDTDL

Legend:
[1] = target: T1, SEC31A (human (endogenous in HeLa)) (UniProt O94979); test: co-IP; endogenous proteins in HeLa cell lysate, 1% NP-40 buffer, Protein A/G magnetic beads with ~2 μg antibody or IgG, 4°C overnight, immunoblotting
T1 sequence: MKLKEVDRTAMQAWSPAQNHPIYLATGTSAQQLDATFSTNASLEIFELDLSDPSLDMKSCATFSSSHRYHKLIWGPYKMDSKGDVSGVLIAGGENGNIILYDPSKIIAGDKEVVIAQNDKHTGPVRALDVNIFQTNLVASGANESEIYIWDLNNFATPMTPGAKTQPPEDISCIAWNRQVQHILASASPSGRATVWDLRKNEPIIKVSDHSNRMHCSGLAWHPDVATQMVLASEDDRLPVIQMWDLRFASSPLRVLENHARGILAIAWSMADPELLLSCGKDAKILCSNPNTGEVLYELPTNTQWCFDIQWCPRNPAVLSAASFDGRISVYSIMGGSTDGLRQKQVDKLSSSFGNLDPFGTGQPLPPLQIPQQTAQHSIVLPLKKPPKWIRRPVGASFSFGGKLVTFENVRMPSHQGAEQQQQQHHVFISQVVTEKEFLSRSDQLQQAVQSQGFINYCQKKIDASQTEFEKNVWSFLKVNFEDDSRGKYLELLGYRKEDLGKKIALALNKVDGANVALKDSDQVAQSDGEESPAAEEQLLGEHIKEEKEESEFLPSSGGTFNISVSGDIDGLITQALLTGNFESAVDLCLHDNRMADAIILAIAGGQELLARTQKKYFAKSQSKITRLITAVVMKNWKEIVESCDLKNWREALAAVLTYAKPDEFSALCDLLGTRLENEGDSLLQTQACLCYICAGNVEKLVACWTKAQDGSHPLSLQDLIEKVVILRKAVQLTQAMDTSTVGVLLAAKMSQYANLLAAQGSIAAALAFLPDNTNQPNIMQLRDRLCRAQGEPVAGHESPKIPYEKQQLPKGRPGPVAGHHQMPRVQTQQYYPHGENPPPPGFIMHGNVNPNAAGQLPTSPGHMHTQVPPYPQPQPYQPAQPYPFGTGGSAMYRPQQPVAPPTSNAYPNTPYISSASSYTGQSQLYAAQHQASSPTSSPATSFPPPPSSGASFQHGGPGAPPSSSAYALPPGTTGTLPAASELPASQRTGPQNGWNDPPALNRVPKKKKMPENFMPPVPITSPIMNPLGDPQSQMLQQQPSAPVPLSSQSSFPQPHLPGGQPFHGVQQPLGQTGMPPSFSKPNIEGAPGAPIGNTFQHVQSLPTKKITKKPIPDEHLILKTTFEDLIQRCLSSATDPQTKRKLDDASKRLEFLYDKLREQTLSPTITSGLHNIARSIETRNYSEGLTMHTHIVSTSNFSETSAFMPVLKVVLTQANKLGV

Rab1B-GST = Rab1B-GST (UniProt Q9H0U4); test: pull-down; GST fusion proteins on glutathione magnetic agarose beads mixed with 1 mg Nlp-6*His for 6 hours at 4°C, washed seven times with 1% NP-40 buffer, immunoblotting; both purified
SEC13-GST = target: T2, SEC13-GST (UniProt P55735); test: as above
T2 sequence: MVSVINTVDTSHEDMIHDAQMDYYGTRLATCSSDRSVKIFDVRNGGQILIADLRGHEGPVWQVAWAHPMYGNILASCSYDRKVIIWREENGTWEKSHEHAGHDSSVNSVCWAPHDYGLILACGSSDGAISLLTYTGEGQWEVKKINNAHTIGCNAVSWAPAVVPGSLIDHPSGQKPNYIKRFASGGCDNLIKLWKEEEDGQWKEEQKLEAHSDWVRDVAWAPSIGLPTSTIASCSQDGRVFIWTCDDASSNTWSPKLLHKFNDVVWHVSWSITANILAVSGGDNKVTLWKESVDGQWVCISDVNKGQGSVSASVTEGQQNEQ

SEC23B-GST = SEC23B-GST (UniProt Q15437); test: as above
SEC24A-GST = target: T3, SEC24A-GST (UniProt O95486); test: as above
T3 sequence: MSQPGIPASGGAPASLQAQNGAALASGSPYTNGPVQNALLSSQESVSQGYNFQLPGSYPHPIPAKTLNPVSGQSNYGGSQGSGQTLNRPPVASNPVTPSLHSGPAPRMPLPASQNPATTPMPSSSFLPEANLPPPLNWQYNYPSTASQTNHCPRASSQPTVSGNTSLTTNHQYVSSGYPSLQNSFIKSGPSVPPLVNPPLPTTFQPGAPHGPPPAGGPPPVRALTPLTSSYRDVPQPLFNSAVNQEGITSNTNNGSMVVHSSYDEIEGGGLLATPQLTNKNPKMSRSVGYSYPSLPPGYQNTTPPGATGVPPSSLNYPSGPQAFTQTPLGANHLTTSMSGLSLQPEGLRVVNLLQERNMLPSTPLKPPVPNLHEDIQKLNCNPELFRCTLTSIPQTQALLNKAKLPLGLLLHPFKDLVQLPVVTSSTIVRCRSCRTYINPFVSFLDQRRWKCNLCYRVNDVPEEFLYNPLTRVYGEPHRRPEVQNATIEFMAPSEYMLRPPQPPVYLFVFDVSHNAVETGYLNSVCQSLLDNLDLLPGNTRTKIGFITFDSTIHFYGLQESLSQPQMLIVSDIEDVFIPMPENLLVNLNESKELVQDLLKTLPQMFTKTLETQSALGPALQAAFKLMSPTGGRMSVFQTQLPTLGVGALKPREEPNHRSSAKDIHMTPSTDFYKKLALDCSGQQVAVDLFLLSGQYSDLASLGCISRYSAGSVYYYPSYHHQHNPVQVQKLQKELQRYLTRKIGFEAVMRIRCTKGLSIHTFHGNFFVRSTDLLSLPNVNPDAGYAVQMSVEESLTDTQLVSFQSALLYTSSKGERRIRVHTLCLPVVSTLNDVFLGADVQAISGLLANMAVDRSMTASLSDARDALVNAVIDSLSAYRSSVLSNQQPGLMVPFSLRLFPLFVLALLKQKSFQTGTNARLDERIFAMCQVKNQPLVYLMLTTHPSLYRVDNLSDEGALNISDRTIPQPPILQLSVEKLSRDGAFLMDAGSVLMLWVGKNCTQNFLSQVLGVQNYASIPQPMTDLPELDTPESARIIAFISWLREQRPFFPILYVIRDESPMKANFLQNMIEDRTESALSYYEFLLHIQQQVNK

SEC31A-GST = target: T4, SEC31A-GST (UniProt O94979); test: as above
T4 sequence: T1 sequence

[2] = target: Ninein-like protein (Nlp) (human (endogenous in HeLa)) (UniProt Q9Y2I6); test: co-IP; endogenous proteins in HeLa cell lysate, 1% NP-40 buffer, Protein A/G magnetic beads with ~2 μg antibody or IgG, 4°C overnight, immunoblotting
Nlp-6*His = Nlp-6*His (UniProt Q9Y2I6); test: SPR; Biacore 8K, 6000 RU of Nlp-6*His immobilised on a CM5 chip by amine coupling, PBS running buffer, 25 °C; gradient concentrations of SEC31A or Rab1B injected; both purified

In the case of “Ninein-like protein (Nlp) (from UniProt Q9Y2I6 1-1382)”, the binding [1] is reported as “binds”.
In the case of Nlp-6*His (from UniProt Q9Y2I6 1-1382), the binding (Rab1B-GST) is reported as “binds”, the binding (SEC13-GST) is reported as “no binding (tested: 1 mg Nlp-6*His fusion protein)” and the binding (SEC23B-GST) is reported as “no binding (tested: 1 mg Nlp-6*His fusion protein)”. For the same substance, the binding (SEC24A-GST) was “no binding (tested: 1 mg Nlp-6*His fusion protein)” and the binding (SEC31A-GST) was “binds”.
With Rab1B (from UniProt Q9H0U4 1-201) the binding [2] was “binds”.
With “Rab1B purified protein (GST removed by Thrombin) (from UniProt Q9H0U4 1-201)” the binding (Nlp-6*His) was “binds”.
With STING (from UniProt Q86WV6 1-379) the binding [2] was “binds”.
With β-Catenin (from UniProt P35222 1-781) the binding [2] was “binds”.
